Assay results taken from the antibiotic and cytotoxicity screens of Wong et al. (2023).
Some of the results follow.

System: HepG2
Experiment: cytotoxicity call (relative viability < 0.9)
Conditions: 10 µM

Row | Compound | cytotoxicity call
1 | Cc1ccc(S(=O)(=O)Nc2ccc3c(c2)C(=O)N([C@H](C)CO)C[C@H](C)[C@H](CN(C)Cc2ccc(C(=O)O)cc2)OCCCC[C@H](C)O3)cc1 | inactive
2 | C[C@@H]1CN([C@H](C)CO)C(=O)c2cc(NS(=O)(=O)c3cn(C)cn3)ccc2O[C@@H]1CN(C)S(=O)(=O)c1cccs1 | inactive
3 | Cn1c(=O)c2c(ncn2C[C@@H](O)CNc2ccc(Br)cc2)n(C)c1=O | inactive
4 | COc1ccc(S(=O)(=O)N(C)C[C@H]2Oc3c(NS(=O)(=O)c4ccccc4)cccc3C(=O)N([C@H](C)CO)C[C@@H]2C)cc1 | inactive
5 | C[C@@H]1CN([C@@H](C)CO)C(=O)c2cc(NC(=O)c3ccccc3)ccc2O[C@@H](C)CCCCO[C@@H]1CN(C)C(=O)c1ccccc1 | inactive
6 | COCCNC(=O)C[C@H]1CC[C@@H]2[C@H](COC[C@@H](O)CN2C(=O)Nc2ccccc2OC)O1 | inactive
7 | C[C@H](CO)N1C[C@H](C)[C@@H](CN(C)S(=O)(=O)c2ccccc2)OCCCC[C@H](C)Oc2ccc(NC(=O)Nc3ccccc3)cc2C1=O | inactive
8 | C[C@@H]1CN([C@H](C)CO)C(=O)c2cccc(NS(=O)(=O)c3cn(C)cn3)c2O[C@@H]1CN(C)S(=O)(=O)c1ccccc1 | inactive
9 | COc1ccc2c3c([nH]c2c1)[C@@H](CO)N(C[C@]13CCN(CC1)C(=O)c1cccnc1)C(=O)c1cccnc1 | inactive
10 | O=C(C[C@@H]1C[C@@H]2c3cc(NS(=O)(=O)c4ccccc4)ccc3O[C@@H]2[C@H](CO)O1)NCC(F)(F)F | inactive
11 | COc1ccc2c3c(n(c2c1)C)[C@@H](CO)N(C[C@]13CN(C1)C(=O)Nc1cccc(c1)F)C(=O)CN1CCOCC1 | inactive

System: S. aureus RN4220
Experiment: growth inhibition call (relative growth <= 0.2)
Conditions: 50 µM

Row | Compound | growth inhibition call
12 | C[C@@H]1CCCCO[C@@H](CN(C)Cc2ccc3c(c2)OCO3)[C@H](C)CN([C@H](C)CO)C(=O)c2cc(NC(=O)Nc3cccc4ccccc34)ccc2O1 | inactive
13 | C[C@@H]1CN([C@H](C)CO)C(=O)c2cc(NC(=O)Nc3ccc4c(c3)OCO4)ccc2O[C@@H](C)CCCCO[C@@H]1CN(C)S(=O)(=O)c1ccc(F)cc1 | inactive
14 | C[C@H]1CN([C@@H](C)CO)C(=O)c2cccc(NS(=O)(=O)c3cccs3)c2O[C@H]1CN(C)Cc1ccc(Cl)c(Cl)c1 | inactive
15 | O=C1O[C@@H](c2ccccc2)[C@@H](c2ccccc2)N2[C@@H](c3ccc(O)cc3)[C@]3(C(=O)Nc4ccc(C#CC5=CCCCC5)cc43)[C@@H](C(=O)NC[C@H](O)c3ccccc3)[C@H]12 | inactive
16 | C[C@@H]1CN([C@@H](C)CO)C(=O)c2cc(NC(=O)C3CCCCC3)ccc2O[C@@H]1CN(C)Cc1ccc(C(=O)Nc2ccccc2N)cc1 | inactive
17 | O=C1c2ccncc2C(=O)N1CO | inactive
18 | COc1ccc(S(=O)(=O)N2C[C@H](O)COC[C@H]3O[C@@H](CC(=O)N[C@@H]4CCN(Cc5ccccc5)C4)CC[C@@H]32)cc1 | inactive
19 | COc1ccc(S(=O)(=O)N[C@@H]2CC[C@H](CC(=O)N3CCN(c4ccccc4)CC3)O[C@H]2CO)cc1 | inactive
20 | CC(C)(O)C#Cc1ccc([C@@H]2[C@H](CO)N3CCCCN(S(C)(=O)=O)C[C@@H]23)cc1 | inactive
21 | COc1ccccc1CNS(C)(=O)=O | inactive
22 | CON=C(C(=O)NC1C(=O)N2C(C(=O)O)=C(C[N+]3(C)CCCC3)CSC12)c1csc(N)n1.[Cl-] (stereo not drawn) | active
23 | CC[C@@]1(O)C[C@H](O[C@H]2C[C@H](N(C)C)[C@H](O[C@H]3C[C@H](O)[C@H](O[C@H]4CCC(=O)[C@H](C)O4)[C@H](C)O3)[C@H](C)O2)c2c(cc3c(c2O)C(=O)c2c(O)cccc2C3=O)[C@H]1C(=O)OC | inactive
24 | Cc1cc(O)c(C=O)c2c1C(=O)Oc1c(COC(=O)C=CC(=O)O)c(O)c(C(=O)O)c(C)c1O2 | inactive
25 | C[C@@H]1CN([C@@H](C)CO)C(=O)Cc2cc(NC(=O)CCN3CCOCC3)ccc2O[C@H]1CN(C)CC1CC1 | inactive
26 | CN(C)CCCNC(=O)C[C@H]1CC[C@@H]2[C@H](COC[C@@H](O)CN2S(=O)(=O)c2ccc(Cl)cc2)O1 | inactive
27 | C[C@@H]1CN([C@@H](C)CO)C(=O)c2cc(NS(=O)(=O)c3cccs3)ccc2O[C@@H](C)CCCCO[C@H]1CN(C)C(=O)Nc1cccc2ccccc12 | inactive
28 | CO[C@@H]1CN(C)C(=O)c2cc(NS(=O)(=O)c3cn(C)cn3)ccc2OC[C@@H](C)N(CC2CC2)C[C@H]1C | inactive
